# The BET-seq Pho4 binding data (Le et al. 2018)
# Some of the results follow. Values were computed here from the reads of four pooled replicates and scatter widely.
# Biological target: T1, Pho4 (S. cerevisiae) (UniProt P07270)
# T1 sequence: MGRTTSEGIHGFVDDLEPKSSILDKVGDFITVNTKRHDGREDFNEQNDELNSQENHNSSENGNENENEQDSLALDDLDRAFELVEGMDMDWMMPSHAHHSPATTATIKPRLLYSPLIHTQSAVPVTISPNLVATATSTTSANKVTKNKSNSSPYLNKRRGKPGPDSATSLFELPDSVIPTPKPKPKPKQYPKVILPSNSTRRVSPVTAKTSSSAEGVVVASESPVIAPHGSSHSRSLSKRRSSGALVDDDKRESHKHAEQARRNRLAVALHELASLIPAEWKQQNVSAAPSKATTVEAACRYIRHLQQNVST
# Experiment: relative binding free energy (BET-seq); higher = weaker binding
# Settings: reference: library average
row,Sequence,relative binding free energy [kcal/mol]
1,TTTAGCACGTGAGGTA,0.11
2,TGGAACACGTGAAGTG,0.2
3,TGGGTCACGTGCTAGG,0.01
4,AGGGTCACGTGGATCG,0.25
5,TTCTACACGTGGGGCA,0.11
6,GTTAGCACGTGTATAG,-0.04
7,TGCAGCACGTGGGCGG,-0.28
8,AGAAGCACGTGCGAGG,-0.09
9,CAGTCCACGTGGGTTG,-0.04
10,TGTTACACGTGTGCTT,-0.01
11,TCTTGCACGTGATGAG,0.24
12,GTGGTCACGTGGAGAC,0.23
13,TGGGTCACGTGTTGCT,0.17
14,ATTTGCACGTGGTTTG,-0.03
15,GAGCGCACGTGCTGGG,-0.05
16,CAGGGCACGTGTAGGC,-0.04
17,AATGGCACGTGCGGGG,-0.03
18,TTGCTCACGTGAAGTT,0.42
19,ATAGTCACGTGAGTCT,0.28
20,TATTACACGTGCTGTT,-0.05
21,TAGTACACGTGTCAGT,0.04

row,Sequence,relative binding free energy [kcal/mol]
1,AAGATCACGTGTGGGC,0.21
2,AGACTCACGTGAGGGT,0.36
3,TTGTGCACGTGTTTTT,0.09
4,GGTTGCACGTGATTGG,0.24
5,TGGAGCACGTGAGCTT,0.12
6,TGTTACACGTGTGAGG,0.28
7,AGGTTCACGTGCTATG,0.27
8,TTGGTCACGTGAGATC,0.34
9,ATTGGCACGTGCCAGG,-0.22
10,CACTGCACGTGTGGTG,0.06
11,TGATGCACGTGTTCGG,0.02
12,ATCAGCACGTGTTGGT,-0.07
13,GGCGTCACGTGGTGAG,0.05
14,TCTTACACGTGGTATG,0.04
15,AGGATCACGTGTATGA,0.24
16,AAGGGCACGTGGAAAT,0.01
17,GGGTTCACGTGCATGG,0.25
18,GTGTGCACGTGATAGC,0.1
19,GTGTACACGTGGGAAG,0.1
20,TAGGCCACGTGGAATA,0.22
21,GTTGTCACGTGGGACA,0.04

row,Sequence,relative binding free energy [kcal/mol]
1,TGGGTCACGTGAGGTT,0.37
2,ATACGCACGTGTGGAG,-0.11
3,TTGAACACGTGGCCGG,0.04
4,AGGCACACGTGTGTAT,0.14
5,ACTGTCACGTGCGGGG,0.06
6,TTTTACACGTGGGGAC,0.04
7,GCGTGCACGTGGCGTT,-0.14
8,CGGAGCACGTGCGGTG,-0.12
9,TTTATCACGTGATAAA,0.22
10,GATTGCACGTGGTGTC,0.14
11,GTAAGCACGTGCGTTG,-0.08
12,TTGCGCACGTGGTGCT,-0.23
13,GGGGTCACGTGGGCCG,0.1
14,GAGGGCACGTGTGTGT,-0.04
15,TGCTACACGTGTTGTA,0.01
16,GTGAGCACGTGAAGCG,0.33
17,TGGAACACGTGGTGTG,-0.05
18,TTATGCACGTGGCTCT,-0.14
19,GGTCGCACGTGTGTTC,0.11
20,GTGTTCACGTGGATAG,0.19
21,TGTAGCACGTGAGAGA,0.24
